In patent US20260184782A1 (TWIST BIOSCIENCE, published 2026) one finds Kd data, which are given here for ten molecules.

Usually Kd stands for the free concentration of one partner at which half of the binding sites on the other are occupied at equilibrium, for simple one-to-one binding. Read a low Kd as a tighter complex.

To fix the notation:
T1: TIGIT (T cell immunoreceptor with Ig and ITIM domains) (UniProt Q495A1 22-141, limits assumed)
T1 sequence (looked up): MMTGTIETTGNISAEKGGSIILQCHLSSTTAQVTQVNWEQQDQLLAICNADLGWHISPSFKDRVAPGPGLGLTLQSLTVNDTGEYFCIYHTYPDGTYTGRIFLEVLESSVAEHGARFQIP

B1: TIGIT-30-39 (Fc fusion)
chain: EVQLVESGGGLVQAGGSLRLSCAASGFTFSTSWMGWFRQAPGKEREWVVGISSGGSTHYADSVKGRFTISADNAKNTVYLQMNSLKPEDTAVYYCAADVWYGSTWRNWGQGTQVTVSSGGGGS[in this place human IgG1 Fc with C220S (EU numbers)]
notes: VHH-Fc
B2: TIGIT-30-40 (Fc fusion)
chain: EVQLVESGGGLVQAGGSLRLSCAASGFTFSGNWMGWFRQAPGKEREWVVGISSGGSTHYADSVKGRFTISADNAKNTVYLQMNSLKPEDTAVYYCAADVWYGSTWRNWGQGTQVTVSSGGGGS[in this place human IgG1 Fc with C220S (EU numbers)]
notes: VHH-Fc
B3: TIGIT-31-39 (Fc fusion)
chain: EVQLVESGGGLVQPGGSLRLSCAASGFTFSTSWMGWFRQAPGKERELVAGVNSNGYINYADSVKGRFTISADNSKNTAYLQMNSLKPEDTAVYYCAADVWYGSTWRNWGQGTLVTVSSGGGGS[in this place human IgG1 Fc with C220S (EU numbers)]
notes: VHH-Fc
B4: TIGIT-31-47 (Fc fusion)
chain: EVQLVESGGGLVQPGGSLRLSCAASGFTFSGNWMGWFRQAPGKEREWVVGISSGGTPHYADSVKGRFTISADNSKNTAYLQMNSLKPEDTAVYYCAADVWYGSTWRNWGQGTLVTVSSGGGGS[in this place human IgG1 Fc with C220S (EU numbers)]
notes: VHH-Fc
B5: TIGIT-31-20 (Fc fusion)
chain: EVQLVESGGGLVQPGGSLRLSCAASGFTFSGNWMGWFRQAPGKEREFVAGILSDGRELYADSVKGRFTISADNSKNTAYLQMNSLKPEDTAVYYCAADVWYGSTWRNWGQGTLVTVSSGGGGS[in this place human IgG1 Fc with C220S (EU numbers)]
notes: VHH-Fc
B6: TIGIT-31-35 (Fc fusion)
chain: EVQLVESGGGLVQPGGSLRLSCAASGFTFSTSWMGWFRQAPGKERELVASITSGGTTNYADSVKGRFTISADNSKNTAYLQMNSLKPEDTAVYYCAADVWYGSTWRNWGQGTLVTVSSGGGGS[in this place human IgG1 Fc with C220S (EU numbers)]
notes: VHH-Fc
B7: TIGIT-31-18 (Fc fusion)
chain: EVQLVESGGGLVQPGGSLRLSCAASGFTFSGNWMGWFRQAPGKEREFVASISSGSAINYADSVKGRFTISADNSKNTAYLQMNSLKPEDTAVYYCAADVWYGSTWRNWGQGTLVTVSSGGGGS[in this place human IgG1 Fc with C220S (EU numbers)]
notes: VHH-Fc
B8: TIGIT-31-15 (Fc fusion)
chain: EVQLVESGGGLVQPGGSLRLSCAASGFTFSTYGMGWFRQAPGKEREFVAAISWSGVSKHYADSVKGRFTISADNSKNTAYLQMNSLKPEDTAVYYCASSPYGPLYRSTHYYDWGQGTLVTVSSGGGGS[in this place human IgG1 Fc with C220S (EU numbers)]
notes: VHH-Fc
B9: TIGIT-31-10 (Fc fusion)
chain: EVQLVESGGGLVQPGGSLRLSCAASGHTFSSYGMGWFRQAPGKERELVAAISWSGISTIYADSVKGRFTISADNSKNTAYLQMNSLKPEDTAVYYCASSPYGPLYRSTHYYDWGQGTLVTVSSGGGGS[in this place human IgG1 Fc with C220S (EU numbers)]
notes: VHH-Fc
B10: TIGIT-30-5 (Fc fusion)
chain: EVQLVESGGGLVQAGGSLRLSCAASGGTFRNYGMGWFRQAPGKERELVAAISWSGVSTIYADSVKGRFTISADNAKNTVYLQMNSLKPEDTAVYYCASSPYGPLYRSTHYYDWGQGTQVTVSSGGGGS[in this place human IgG1 Fc with C220S (EU numbers)]
notes: VHH-Fc

In this experiment the target is T1, TIGIT (T cell immunoreceptor with Ig …). Nature of the experiment: SPR (Carterra), VHH-Fc. The text has this:
The Carterra SPR system was used to assess binding affinity and affinity distribution for VHH-Fc variants. […] Table 5A provides specific values for the VHH-Fc clones for ELISA, Protein A (mg/ml), and KD (nM). FIG. 7A and FIG. 7B depict TIGIT affinity distribution for the VHH libraries, over the 20-4000 affinity threshold (FIG. 7A; monovalent KD) and the 20-1000 affinity threshold (FIG. 7B; monovalent KD).
Consider B1, for which the dissociation constant (Kd) turned out to be 88 nM.

The molecule B2 returned a dissociation constant (Kd) of 99 nM.

The molecule B3 came in with a Kd of 78 nM.

B4 came in with a Kd of 53 nM.

Molecule B5 yielded a Kd of 74 nM.

On to B6, for which the affinity, expressed as Kd, was 66 nM.

B7 came in with a dissociation constant Kd of 99 nM. Compared with the last molecule, the Kd is about 1.5-fold higher.

The molecule B8 yielded a Kd of 88 nM. The Kd values of the last two molecules are within 1.5-fold of each other.

The molecule B9 yielded a Kd of 94 nM.

As to B10, binding was characterised by a dissociation constant (Kd) of 100 nM.
